The campaign covered roughly 110,000 compounds. About 230 (0.21%) showed an effect of 50% or more. The list shows a part of the results.
target: DPAP1 (Plasmodium falciparum, UniProt Q8IIJ9); experiment: primary screen, percent inhibition; read by cleavage of a fluorogenic dipeptide substrate; higher = more effect of the substance; set-up: species or system P. falciparum D10 trophozoite lysates; single well
Protocol: HTS was performed in black 384-well plates. The first and last two columns of each plate contained our negative (DMSO) and positive (10 μM JCP410) controls, and the 20 central columns the test compounds at 10 μM. Compounds were first diluted 50-fold into assay buffer (50 mM sodium acetate, 5 mM MgCl2, 10 mM β-mercaptoethanol, and 0.1% CHAPS, pH 5.5) from a 10 mM DMSO stock plates. One microliter of this 200 μM intermediate stock plate was dispensed into the assay plate. […] After 30 min, the reaction was quenched with 20 μL of 0.5 M acetic acid, and the fluorescent intensity measured at 523 nm (λex = 492 nm) using an Analyst HT multimode plate reader (Molecular Devices).
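Further: 30 min substrate incubation versus DMSO and 10 µM JCP410 controls.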

Chain of DPAP1 (Q8IIJ9 whole entry, looked up): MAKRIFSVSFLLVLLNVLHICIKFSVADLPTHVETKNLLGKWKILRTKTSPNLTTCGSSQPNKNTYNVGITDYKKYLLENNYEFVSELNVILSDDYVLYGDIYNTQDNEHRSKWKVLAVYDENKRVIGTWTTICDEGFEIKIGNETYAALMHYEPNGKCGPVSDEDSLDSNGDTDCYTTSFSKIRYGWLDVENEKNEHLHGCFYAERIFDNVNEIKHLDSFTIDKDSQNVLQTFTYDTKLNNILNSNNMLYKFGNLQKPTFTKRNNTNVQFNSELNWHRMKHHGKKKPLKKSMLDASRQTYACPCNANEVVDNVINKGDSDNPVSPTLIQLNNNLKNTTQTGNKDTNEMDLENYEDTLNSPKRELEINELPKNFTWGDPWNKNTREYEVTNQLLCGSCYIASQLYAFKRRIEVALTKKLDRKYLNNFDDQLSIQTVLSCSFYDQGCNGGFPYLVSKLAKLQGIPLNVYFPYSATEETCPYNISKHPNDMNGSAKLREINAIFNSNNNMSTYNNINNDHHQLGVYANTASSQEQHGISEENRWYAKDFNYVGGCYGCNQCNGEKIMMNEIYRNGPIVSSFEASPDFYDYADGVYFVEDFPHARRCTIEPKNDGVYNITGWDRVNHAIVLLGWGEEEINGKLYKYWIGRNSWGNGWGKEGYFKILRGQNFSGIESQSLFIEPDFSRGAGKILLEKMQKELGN

Row | SMILES | % Inhibition @ 10 uM
1 | Cc1ccc(C2=NN(CC(=O)N3CCN(Cc4ccccc4)CC3)C(=O)CC2)cc1 | -2.99%
2 | Cc1cccc(C(=O)Nc2ccc(S(=O)(=O)Nc3nccs3)cc2)c1 | 3.53%
3 | CC(C)C[C@H](NC(=O)N(C)c1ccccc1)C(=O)NCC#N | -3.48%
4 | C=C(C)CN(CC)C1CCN(Cc2ccccc2)CC1 | -5.94%
5 | CCOCC(=O)Nc1nc2ccc(OCC)cc2s1 | -6.05%
6 | CC1=C(C(=O)OC2CCCC2)C(c2ccccc2Cl)C2=C(O)CC(C)(C)CC2=N1 (stereo not shown) | 4.74%
7 | NC(=O)CC(Nc1c2ccccc2nc2ccccc12)C(=O)O (stereo not shown) | -1.69%
8 | CN(Cc1ccccc1)C(=O)c1cc2c(=O)n3ccccc3nc2n1C | -1.55%
9 | CCC(=O)Nc1ccc(Cl)c(NC(=O)c2ccc(C)cc2C)c1 | -0.519%
10 | Cc1ccc(Cl)cc1N1CCN(C(=O)C2C3CCC(C3)C2C(=O)O)CC1 (stereo not shown) | 2.25%
11 | CC1CCN(S(=O)(=O)c2ccc3c(ccn3CC(=O)NCCc3ccc(Cl)cc3)c2)CC1 | -0.899%
12 | CC(=O)N(C)c1ccc(NC(=O)Cc2cccc3ccccc23)cc1 | -1.04%
13 | O=C(COc1ccccc1)Nc1ncc(Cc2cc(Cl)ccc2Cl)s1 | 9.47%
14 | CCCCOC(=O)c1cc(-c2ccc(C=C3C(=O)N(C)C(=O)N(C)C3=O)o2)ccc1Cl | 13.2%
15 | Cc1ccc(-c2c3c(=O)n(C)c(=O)n(C)c3c3c(-c4cccnc4)nc4ccccc4n23)cc1 | -1.43%
16 | O=S(=O)(Nc1ccc(N2CCOCC2)cc1)c1ccccc1 | 3.25%
17 | COc1cc(C)c(Cl)cc1S(=O)(=O)NCC1CCCO1 (stereo not shown) | 0.245%
18 | C1CCC(Oc2nc(OC3CCCCC3)nc(OC3CCCCC3)n2)CC1 | -0.215%
19 | CCOc1ccc(-c2nn(-c3ccccc3)cc2C2C(C(=O)OC)=C(C)N=C(C)/C2=C(/O)OC)cc1 (stereo not shown) | 1.52%
20 | CSc1nc2c(c(=O)n1C1CCOC(C)(C)C1)C1(CCCCC1)Cc1ccccc1-2 (stereo not shown) | -1.99%
21 | CN(C)CCN1C(=O)C(O)=C(C(=O)c2cc3ccccc3o2)C1c1ccc(O)cc1 (stereo not shown) | 0.198%
22 | OC1(c2ccc(Br)cc2)CCN(C2CC3CCC2C3)CC1 (stereo not shown) | 1.38%
23 | CCOc1ccccc1C(=O)Nc1cc(C)ccc1O | 5.44%
24 | N=C1/C(=C\c2ccc(-c3cccc(C(=O)O)c3)o2)C(=O)N=C2SC(N3CCCCC3)=NN12 | 4.88%
25 | CCOC(=O)C1=C(c2ccccc2)N=C2SCC(=O)N2C1c1ccc(OC)cc1 (stereo not shown) | 1.26%

Row | SMILES | % Inhibition @ 10 uM
26 | COc1ccccc1CNC(=O)CS(=O)Cc1nc(-c2ccccc2Cl)oc1C (stereo not shown) | -1.05%
27 | Cc1cc(C)cc(CC2CC(=O)N(c3cc(C)ccc3C)C2=O)c1 (stereo not shown) | 2.22%
28 | CN(C)CC[S+](O)c1ccccc1 (stereo not shown) | 5.02%
29 | O=C(Cc1cccc(O)c1)Nc1cc(-c2ccncc2)cnc1O | -1.05%
30 | CN(C)/C=C/c1c(C#N)c(=O)ncn1Cc1ccccc1 | -1.69%
31 | COc1ccc(C2C(C#N)=C(N)OC3=C2C(=O)CCC3)cc1COCC(F)(F)F (stereo not shown) | 1.02%
32 | CCO/C(O)=C1/C(C)=Nc2ncnn2C1c1ccc(Cl)cc1 (stereo not shown) | 1.73%
33 | Cc1ccc(/C=C2/SC(=O)N(Cc3cc4c(cc3Cl)OCO4)C2=O)o1 | -0.62%
34 | C=CCOc1ccc(/C=C2\C(=O)N(CCOC)C(C)=C2C(=O)OCC)cc1 | 0.279%
35 | Cc1nc2sc3c(NC4CCCCC4)ncnc3c2c2c1COC(C)(C)C2 | 0.415%
36 | COc1ccc(C(=O)Nc2cc(Cl)ccc2C)cc1 | 6.6%
37 | COc1ccc(/C=C2/SC(=O)N(CC(=O)Nc3nccs3)C2=O)cc1 | 18.7%
38 | O=C(c1ccco1)N1CCN(C(=O)c2cnn(-c3ccc(F)cc3)c2-n2cccc2)CC1 | -2.5%
39 | Cc1ccc(NC(=O)CN2C(=O)CSC2=O)cc1C | 2.87%
40 | O=C1NC2(Oc3ccccc31)C(=O)Nc1ccccc12 (stereo not shown) | -2.17%
41 | CC(CNC(=O)Cn1ccc2cc(S(=O)(=O)N3CCCC3)ccc21)c1ccccc1 (stereo not shown) | -3.69%
42 | CCC(=O)NC(C)Cc1c[nH]c2ccccc12 (stereo not shown) | -4.72%
43 | Cc1cc(-c2ccccc2)nc2oc3c(=O)n(C)cnc3c12 | 4.41%
44 | Cc1cc(-c2ccc(C)c(S(=O)(=O)NCCN(CC(C)C)CC(C)C)c2)on1 | -6.67%
45 | O=C(O)CCC(=O)Nc1ccc2nn(-c3ccccc3)nc2c1 | -3.98%
46 | Cc1cccc(CN(C)CCc2ccccn2)c1 | -1.62%
47 | COc1ccc(C)cc1NC(=O)c1ccc(C)cc1 | 2.93%
48 | CC(C)SC1=NSC2=NC(=O)/C(=C\c3coc4ccccc4c3=O)C(=N)N21 | 12.6%
49 | O=C(CSc1nc2c(c(=O)n1CCc1ccccc1)SCC2)NCC1CCCO1 (stereo not shown) | 0.0147%

Source: paper PMC6919601, “Identification of Plasmodium dipeptidyl aminopeptidase allosteric inhibitors by high throughput screening” (PLoS ONE, 2019)
